Results taken from patent publication US20060135770A1, “PARP inhibitors” (Kudos Pharmaceuticals Ltd., priority 2004, published 2006).

Target: Mammalian PARP, isolated from Hela cell nuclear extract (Homo sapiens, UniProt P09874)
Assay: PARP inhibition FlashPlate assay (3H-NAD incorporation, scintillation counting)
Format: biochemical
Description: In order to assess the inhibitory action of the compounds, the following assay was used to determine IC50 values or percentage inhibition at a given concentration.
The total assay volume per well was 40 μl.
After 10 minutes incubation at 30° C. the reactions were initiated by the addition of a 10 μl reaction mixture, containing NAD (5 μM), ^3H-NAD and 30mer double stranded DNA-oligos. Designated positive and negative reaction wells were done in combination with compound wells (unknowns) in order to calculate % enzyme activities. The plates were then shaken for 2 minutes and incubated at 30° C. for 45 minutes.
Following the incubation, the reactions were quenched by the addition of 50 μl 30% acetic acid to each well. The plates were then shaken for 1 hour at room temperature.
The plates were transferred to a TopCount NXT (TRADE MARK) (Packard, UK) for scintillation counting. Values recorded are counts per minute (cpm) following a 30 second counting of each well.
The % enzyme activity for each compound is then calculated using the following equation: [formula] […] Such IC50 values are used as comparative values to identify increased compound potencies.

[1] = PARP enzyme activity, NAD 5 μM, 30° C., read-out: IC50

Structure (SMILES)	IC50 [1] [nM]	IC50 [nM]
CC(C)(C)CCNC(=O)c1cccc(COc2ccccc2C(N)=O)c1 [Compound 5]	< 10000	–
CC(C)CCNC(=O)c1cccc(COc2ccccc2C(N)=O)c1 [Compound 6]	< 10000	–
NC(=O)c1ccccc1OCc1cccc(C(=O)NCCN2CCCCC2)c1 [Compound 8]	< 10000	–
NC(=O)c1ccccc1OCc1cccc(C(=O)NC2CCCCC2)c1 [Compound 9]	< 10000	–
NC(=O)c1ccccc1OCc1cccc(C(=O)NC2=NCCS2)c1 [Compound 10]	< 10000	–
NC(=O)c1ccccc1OCc1cccc(C(=O)NCC2CCCO2)c1 (centres unmarked) [Compound 12]	< 10000	–
CCCCNC(=O)c1cccc(COc2ccccc2C(N)=O)c1 [Compound 13]	< 10000	–
CCCNC(=O)c1cccc(COc2ccccc2C(N)=O)c1 [Compound 14]	< 10000	–
NC(=O)c1ccccc1OCc1cccc(C(=O)NCc2ccco2)c1 [Compound 15]	< 1000	–
CC(C)NC(=O)c1cccc(COc2ccccc2C(N)=O)c1 [Compound 17]	< 10000	–
CN(C)CCNC(=O)c1cccc(COc2ccccc2C(N)=O)c1 [Compound 18]	< 10000	–
CC(C)NC(=O)N1CCN(C(=O)c2cccc(COc3ccccc3C(N)=O)c2)CC1 [Compound 26]	< 1000	–
CC(C)(C)NC(=O)N1CCN(C(=O)c2cccc(COc3ccccc3C(N)=O)c2)CC1 [Compound 27]	< 1000	–
NC(=O)c1ccccc1OCc1cccc(C(=O)N2CCN(C(=O)Nc3ccccc3F)CC2)c1 [Compound 28]	< 500	–
NC(=O)c1ccccc1OCc1cccc(C(=O)N2CCN(C(=O)Nc3ccc(C(F)(F)F)cc3)CC2)c1 [Compound 29]	< 100	–
NC(=O)c1ccccc1OCc1cccc(C(=O)N2CCN(C(=O)Nc3cccc(F)c3)CC2)c1 [Compound 30]	< 500	–
COc1ccccc1NC(=O)N1CCN(C(=O)c2cccc(COc3ccccc3C(N)=O)c2)CC1 [Compound 31]	< 500	–
CCCCCCCCNC(=O)N1CCN(C(=O)c2cccc(COc3ccccc3C(N)=O)c2)CC1 [Compound 32]	< 500	–
NC(=O)c1ccccc1OCc1cccc(C(=O)N2CCN(C(=O)Nc3cc(C(F)(F)F)cc(C(F)(F)F)c3)CC2)c1 [Compound 33]	< 500	–
NC(=O)c1ccccc1OCc1cccc(C(=O)N2CCN(S(=O)(=O)c3ccccc3)CC2)c1 [Compound 36]	< 1000	–
NC(=O)c1ccccc1OCc1cccc(C(=O)N2CCN(C(=O)c3ccccc3)CC2)c1 [Compound 45]	< 500	–
NC(=O)c1ccccc1OCc1cccc(C(=O)N2CCN(C(=O)C3CCCC3)CC2)c1 [Compound 46]	< 500	–
CC(=O)N1CCN(C(=O)c2cccc(COc3ccccc3C(N)=O)c2)CC1 [Compound 47]	< 1000	–
NC(=O)c1ccccc1OCc1cccc(C(=O)N2CCN(C(=O)c3cccc(F)c3)CC2)c1 [Compound 48]	< 500	–

Structure (SMILES)	IC50 [1] [nM]	IC50 [nM]
NC(=O)c1ccccc1OCc1cccc(C(=O)N2CCN(C(=O)C3CC3)CC2)c1 [Compound 49]	< 1000	–
NC(=O)c1ccccc1OCc1cccc(C(=O)N2CCN(C(=O)N3CCOCC3)CC2)c1 [Compound 50]	< 500	–
NC(=O)c1ccccc1OCc1cccc(C(=O)N2CCN(C(=O)c3ccc(F)cc3F)CC2)c1 [Compound 51]	< 500	–
NC(=O)c1ccccc1OCc1cccc(C(=O)N2CCN(C(=O)C3CCCCC3)CC2)c1 [Compound 52]	< 500	–
CC(Oc1ccccc1)C(=O)N1CCN(C(=O)c2cccc(COc3ccccc3C(N)=O)c2)CC1 (centres unmarked) [Compound 53]	< 100	–
NC(=O)c1ccccc1OCc1cccc(C(=O)N2CCN(C(=O)c3ccc(OC(F)(F)F)cc3)CC2)c1 [Compound 54]	< 500	–
NC(=O)c1ccccc1OCc1cccc(C(=O)N2CCN(C(=O)COCc3ccccc3)CC2)c1 [Compound 55]	< 500	–
NC(=O)c1ccccc1OCc1cccc(C(=O)N2CCN(C(=O)c3ccno3)CC2)c1 [Compound 56]	< 500	–
Cc1cccc(CCC(=O)N2CCN(C(=O)c3cccc(COc4ccccc4C(N)=O)c3)CC2)c1 [Compound 57]	< 500	–
COc1cccc(CC(=O)N2CCN(C(=O)c3cccc(COc4ccccc4C(N)=O)c3)CC2)c1OC [Compound 58]	< 500	–
Cn1cc(C(=O)N2CCN(C(=O)c3cccc(COc4ccccc4C(N)=O)c3)CC2)c(C(F)(F)F)n1 [Compound 59]	< 500	–
Cc1nn(C)c(Oc2cccc(C(F)(F)F)c2)c1C(=O)N1CCN(C(=O)c2cccc(COc3ccccc3C(N)=O)c2)CC1 [Compound 60]	< 1000	–
Cn1nc(C(F)(F)F)c2cc(C(=O)N3CCN(C(=O)c4cccc(COc5ccccc5C(N)=O)c4)CC3)sc21 [Compound 61]	< 500	–
NC(=O)c1ccccc1OCc1cccc(C(=O)N2CCN(C(=O)c3ccccc3F)CC2)c1 [Compound 62]	< 500	–
NC(=O)c1ccccc1OCc1ccc(F)c(C(=O)N2CCN(C(=O)Nc3ccccc3F)CC2)c1 [Compound 72]	< 100	–
COc1ccccc1NC(=O)N1CCN(C(=O)c2cc(COc3ccccc3C(N)=O)ccc2F)CC1 [Compound 73]	< 100	–
Cc1cc(C)cc(NC(=O)N2CCN(C(=O)c3cc(COc4ccccc4C(N)=O)ccc3F)CC2)c1 [Compound 74]	< 100	–
NC(=O)c1ccccc1OCc1ccc(F)c(C(=O)N2CCN(S(=O)(=O)Cc3ccccc3)CC2)c1 [Compound 75]	< 100	–
Cc1cccc(CCC(=O)N2CCN(C(=O)c3cc(COc4ccccc4C(N)=O)ccc3F)CC2)c1 [Compound 78]	< 100	–
CN(C)CC(=O)N1CCN(C(=O)c2cc(COc3ccccc3C(N)=O)ccc2F)CC1 [Compound 81]	< 500	–
CC(Oc1ccccc1)C(=O)N1CCN(C(=O)c2cccc(COc3c(F)cccc3C(N)=O)c2)CC1 (centres unmarked) [Compound 116]	< 1000	–
NC(=O)c1ccccc1OCCc1cccc(C(=O)N2CCN(C(=O)Nc3ccccc3F)CC2)c1 [Compound 141]	< 100	–
NC(=O)c1ccccc1OCCc1cccc(C(=O)N2CCN(S(=O)(=O)c3ccc(Cl)cc3)CC2)c1 [Compound 152]	< 500	–
NC(=O)c1ccccc1OCCc1cccc(C(=O)N2CCN(S(=O)(=O)c3cccc(-c4cnco4)c3)CC2)c1 [Compound 159]	< 500	–

Structure (SMILES)	IC50 [1] [nM]	IC50 [nM]
NC(=O)c1ccccc1OCCc1cccc(C(=O)N2CCN(S(=O)(=O)c3cc4ccccc4s3)CC2)c1 [Compound 160]	< 500	–
NC(=O)c1ccccc1OCCc1cccc(C(=O)N2CCN(S(=O)(=O)c3csc4ccccc34)CC2)c1 [Compound 161]	< 500	–
Cc1cccc(CCC(=O)N2CCN(C(=O)c3cccc(CCOc4ccccc4C(N)=O)c3)CC2)c1 [Compound 164]	< 100	–
NC(=O)c1ccccc1OCCc1cccc(C(=O)N2CCN(C(=O)C3CCCCC3)CC2)c1 [Compound 166]	< 500	–
CC(Oc1ccccc1)C(=O)N1CCN(C(=O)c2cccc(CCOc3ccccc3C(N)=O)c2)CC1 (centres unmarked) [Compound 167]	< 500	–
NC(=O)c1ccccc1OCCc1ccc(F)c(C(=O)N2CCN(C(=O)NCCc3ccccc3)CC2)c1 [Compound 184]	< 500	–
Cc1cccc(CCC(=O)N2CCN(C(=O)c3cc(CCOc4ccccc4C(N)=O)ccc3F)CC2)c1 [Compound 185]	< 100	–
NC(=O)c1ccccc1OCCc1ccc(F)c(C(=O)N2CCN(C(=O)C3CCCCC3)CC2)c1 [Compound 187]	< 100	–
NC(=O)c1ccccc1OCCc1ccc(F)c(C(=O)N2CCN(C(=O)C3CCC3)CC2)c1 [Compound 189]	< 500	–
NC(=O)c1ccccc1OCCc1ccc(F)c(C(=O)N2CCN(C(=O)c3ccc4c(c3)OCO4)CC2)c1 [Compound 190]	–	< 1000
CC(=O)N1CCC(C(=O)N2CCN(C(=O)c3cc(CCOc4ccccc4C(N)=O)ccc3F)CC2)CC1 [Compound 191]	< 500	–
Cc1ccc(NC(=O)N2CCN(C(=O)c3cc(COc4ccc(F)cc4C(N)=O)ccc3F)CC2)cc1 [Compound 199]	< 100	–
COc1cccc(NC(=O)N2CCN(C(=O)c3cc(COc4ccc(F)cc4C(N)=O)ccc3F)CC2)c1 [Compound 201]	< 100	–
NC(=O)c1cc(F)ccc1OCc1ccc(F)c(C(=O)N2CCN(C(=O)NC3CCCCC3)CC2)c1 [Compound 202]	< 100	–
Cc1cccc(NC(=O)N2CCN(C(=O)c3cc(COc4ccc(F)cc4C(N)=O)ccc3F)CC2)c1 [Compound 203]	< 100	–
NC(=O)c1cc(F)ccc1OCc1ccc(F)c(C(=O)N2CCN(C(=O)Nc3cccc(C(F)(F)F)c3)CC2)c1 [Compound 204]	< 100	–
NC(=O)c1cc(F)ccc1OCc1ccc(F)c(C(=O)N2CCN(C(=O)Nc3cccc(F)c3)CC2)c1 [Compound 205]	< 100	–
NC(=O)c1cc(F)ccc1OCc1ccc(F)c(C(=O)N2CCN(C(=O)Nc3ccc(C(F)(F)F)cc3)CC2)c1 [Compound 206]	< 100	–
NC(=O)c1cc(F)ccc1OCc1ccc(F)c(C(=O)N2CCN(C(=O)NC34CC5CC(CC(C5)C3)C4)CC2)c1 [Compound 207]	< 100	–
NC(=O)c1cc(F)ccc1OCc1ccc(F)c(C(=O)N2CCN(C(=O)Nc3ccc(F)cc3)CC2)c1 [Compound 208]	< 100	–
Cc1ccccc1NC(=O)N1CCN(C(=O)c2cc(COc3ccc(F)cc3C(N)=O)ccc2F)CC1 [Compound 209]	< 100	–
Cc1cc(C)cc(NC(=O)N2CCN(C(=O)c3cc(COc4ccc(F)cc4C(N)=O)ccc3F)CC2)c1 [Compound 210]	< 100	–
NC(=O)c1cc(F)ccc1OCc1ccc(F)c(C(=O)N2CCN(C(=O)Nc3ccccc3-c3ccccc3)CC2)c1 [Compound 211]	< 100	–

Read-outs that look alike come from different tables or passages of the source.
